The whole screen tested about 150,000 compounds, of which about 540 (0.36%) showed an effect of 50% or more. The list shows a part of the results.
Tested on: Plasmodium falciparum
Assay: Primary screen in NF54 nanoGlo assay, in single point, at 2uM, 72h; a lower Z score goes with more inhibition
Type: functional, Erythrocyte
Details: timepoint 72 hour

Compound | % Inhibition [%] | Z score | % Inhibition (2 µM) [%] | Z score (2 µM)
CCOCCOc1nc(-c2ccco2)n(-c2cccc(NC(=O)c3ccc(C)c(C(F)(F)F)c3)c2)n1 | 0 | 0.05 | – | –
FC(F)(F)c1cnc(C2CCN(c3cnccn3)CC2)[nH]1 | 1 | -0.12 | – | –
CC(C)N(C)S(=O)(=O)Nc1cc(O)ccc1Cl | -5 | 0.84 | – | –
C[C@]1(C(=O)n2nnc3ccccc32)CC1(Cl)Cl | -13 | 2.55 | – | –
COC1CS(=O)(=O)CC1NC(=O)Nc1cn(CC(C)C)nc1C(F)F (stereo not drawn) | -12 | 1.71 | – | –
COc1ccc([C@H](CNCc2c(C)nn(C)c2C)N2CCCCC2)cc1 | 2 | -0.21 | – | –
CC1(C)CC[C@H](CNC(=O)c2ncccc2Cl)O1 | -16 | 1.96 | – | –
CC(C)(C)n1cc(CNc2ccc(Cl)c(F)c2)nn1 | 2 | -0.18 | – | –
Cc1cccc(C)c1C(=O)NC(C)C(C)CO (stereo not drawn) | -14 | 1.18 | – | –
Cc1c(C(=O)NC2CCN(C)CC2)sc2nc(-c3ccccc3)c(NC3CCCC3)n12 | -8 | 1.28 | – | –
O=C(CCc1nc2cccnc2[nH]1)NCCN1CCOCC1 | – | – | 1 | -1.34
CCCCNc1ccccc1C(=O)N[C@H]1CC[C@H](O)CC1 | 1 | -0.09 | – | –
CN(CCCN1CCCC1)C(=O)Nc1cc(F)ccc1OC(F)F | -2 | 0.24 | – | –
COc1ccc(NC(=O)C2C3NC(=O)N(c4ccccc4)C2(C)Oc2ccccc23)cc1 (stereo not drawn) | 29 | -3.26 | – | –
COCCn1ccc(NC(=O)NCc2cccnc2)n1 | 7 | -1.37 | – | –
Cn1nc(NC(=O)c2ccccc2)c2c1CCN(C(=O)C1CCC1)C2 | -10 | 0.86 | – | –
Cc1ccc(-c2nc(C)c([C@H](C)NC(=O)NC3CCOCC3)s2)cc1 | -12 | 1.72 | – | –
Cc1cc(N2CCC(N[C@H]3CCCOc4c(Cl)cccc43)CC2)[nH]n1 | -10 | 1.47 | – | –
CCN(C)c1nc(N2CCN(c3ccc(C)cc3)CC2)nc2c1CN(C(=O)OCc1ccccc1)CC2 | -8 | 0.96 | – | –
C/C(=C\c1ccccc1)CN1CCCn2nc(CNC(=O)C3CCC3)cc2C1 | 7 | -1.18 | – | –
O=C1[C@@H]2Cc3c([nH]c4ccccc34)CN2C(=O)CN1C1CCCCC1 | 6 | -1.1 | – | –

Compound | % Inhibition [%] | Z score | % Inhibition (2 µM) [%] | Z score (2 µM)
O=C(c1ccccn1)N1C[C@H]2CC[C@@H](C1)N(C(=O)c1n[nH]c3ccccc13)C2 | -7 | 1.18 | – | –
CO[C@@H](C)CS(=O)(=O)Nc1ccc(C#N)c(C#N)c1C | 5 | -0.99 | – | –
Cn1cccc1C(=O)Cn1cnc(C#N)n1 | 2 | -0.31 | – | –
O=C(CCc1nc([C@@H]2CCCN2Cc2cccc3[nH]ccc23)no1)N1CCCC1 | 1 | -0.17 | – | –
CC(C)N1CCN(c2nc(C3CCCC3)nc3c2CCOCC3)CC1 | -1 | 0.14 | – | –
Cc1c(N2C(=O)[C@H](Cc3ccccc3)N(C)C2=O)cccc1C(F)(F)F | -7 | 0.69 | – | –
COc1cccc(OC)c1Cn1cnc2ccncc2c1=O | -1 | 0.12 | – | –
CN1C[C@@H](NS(=O)(=O)c2cccnc2)CCC1=O | 6 | -0.82 | – | –
Cc1ccc([C@H](C)NC(=O)Cn2cnc(-c3nc(C)cs3)c2)cc1 | 6 | -0.74 | – | –
CC(C)c1nccc(-c2nccn2CCN2CCCC2=O)n1 | -9 | 0.89 | – | –
CC[C@H](C)N(Cc1ccc(C)cc1)Cc1ncnn1CC | -19 | 2.76 | – | –
Cc1nc(CNC(CC2CCOC2)c2ccccc2)no1 (stereo not drawn) | -9 | 1.3 | – | –
O=C(NCC1CC1)C1CCN(C(=O)c2ncn3c2CO[C@H](c2ccccc2)C3)CC1 | -16 | 1.45 | – | –
Clc1cc(Cl)cc(/N=C2\NC3(CCCCC3)Cc3ccccc32)c1 | -5 | 0.62 | – | –
CC(C)Oc1nc(-c2cccc(C(F)(F)F)c2)n(-c2cccc(NC(=O)c3ccc(F)cc3)c2)n1 | -13 | 1.48 | – | –
Cc1noc(C)c1C(=O)NC1CCN(Cc2ccccc2)CC1 | 1 | -0.26 | – | –
Cc1ccc(-n2nc(C(=O)NCCc3ccccn3)c(=O)n(Cc3cccnc3)c2=O)cc1 | -15 | 2.1 | – | –
CCCCc1nc(N)c(-c2ccc(OC)cc2)c(C#N)c1CCC | 12 | -2.19 | – | –
COc1ccc(CN2CCN3C(=O)N(C4CCOCC4)C[C@H]3C2)cn1 | -4 | 0.73 | – | –
COc1ccc(NC(=O)N(C)CCc2noc(C3CCCCC3)n2)cc1OC | -9 | 0.86 | – | –
Cc1cc(C)c2c(-n3c(C)ccc3C)nn(CC(=O)NCCc3ccccc3C)c2n1 | -6 | 0.59 | – | –

Compound | % Inhibition [%] | Z score | % Inhibition (2 µM) [%] | Z score (2 µM)
COc1cccc(N2CCN(C(=O)c3ccc(-c4nc(-c5ccc(F)cc5)no4)cc3)CC2)c1 | -4 | 0.69 | – | –
CNCC1CCCOC1c1ccccc1 (stereo not drawn) | -12 | 1.45 | – | –
Cc1ocnc1C(=O)N1C[C@@H](C)N(C(=O)c2ncoc2C)[C@@H](C)C1 | -8 | 0.82 | – | –
CC(C)c1cc(C(=O)N2CCC[C@H](C)C2)nc2ccnn12 | 8 | -1.25 | – | –
CCn1cc(CNC(=O)N2CCC(O)(Cc3ccccc3OC)CC2)cn1 | 1 | -0.13 | – | –
Cc1nccc(NC(=O)c2ccn(C(C)C)n2)n1 | -5 | 0.75 | – | –
O=c1[nH]c2ccc(-c3csc(NC4CCCC4)n3)cc2[nH]1 | 3 | -0.28 | – | –
O=C(Nc1ccc(Cl)cn1)C1C(c2ccccc2)C1(Cl)Cl (stereo not drawn) | -6 | 0.82 | – | –
C[C@@H](c1n[nH]c(=O)n1Cc1ccc(Cl)cc1Cl)n1cccn1 | -4 | 0.49 | – | –
NC(=O)[C@H]1CCN(Cc2csc(-c3ccsc3)n2)C1 | -2 | 0.27 | – | –
Cc1ccc(NC(=O)c2ccn(C(=O)Nc3ccccc3)n2)c(C)c1 | -10 | 1.35 | – | –
Cc1cc(F)ccc1NC(=O)[C@H](C)NC(=O)COc1cccnc1 | -1 | 0.15 | – | –
COc1cccc(CN2CCC3OCC(=O)NC3C2)c1F (stereo not drawn) | 0 | 0 | – | –
c1csc([C@@H]2CCCN2Cc2cscn2)n1 | 2 | -0.31 | – | –
CCN(CCC(F)(F)F)C(=O)c1cc(C)cc(C)c1 | -10 | 1.23 | – | –
Cc1ncc(CN2CCCN(C(=O)OCC(C)C)CC2)c(C)n1 | 1 | -0.08 | – | –
CCCNC(=O)Cn1c(C)ncc(-c2nc(-c3ccccc3)cs2)c1=O | -10 | 1.61 | – | –
O=C(Nc1ccc(-c2cc3ccccc3[nH]2)cc1)C1CCN(C2CCC2)CC1 | -14 | 1.62 | – | –
Cc1ccc(C)n1CC(=O)N1CCC[C@H]1c1nc2ccccc2n1C | -10 | 1.29 | – | –
Cc1c(-c2cc(C(=O)NCc3cnc4c(c3)CCC4)n[nH]2)cnn1C | -10 | 1.23 | – | –
CCCN(CC(=O)N(CCc1ccccc1)Cc1ccco1)S(C)(=O)=O | -12 | 1.42 | – | –

Compound | % Inhibition [%] | Z score | % Inhibition (2 µM) [%] | Z score (2 µM)
CC1(C)CC(=O)NCCN1CCOc1cccc(S(C)(=O)=O)c1 | -5 | 0.66 | – | –
Cn1c(C(=O)N2CCOC3CCCC32)cc(Cl)c1Cl (stereo not drawn) | 4 | -0.81 | – | –
Cc1ccc([C@@H]2Cn3cnc(C(=O)N4CCC(C(=O)NCC(F)F)CC4)c3CO2)cc1 | -12 | 1.37 | – | –
CCc1nc(O)c(C(=O)N(C)CCn2cccn2)cc1C | -9 | 1.03 | – | –
CCc1nc(C)nc(N2CCCN(C(=O)c3cc(C(F)(F)F)cc(C(F)(F)F)c3)CC2)c1Cc1ccccc1 | 3 | -0.46 | – | –
CCOC(=O)c1ccc(NC(=O)N(CC)[C@H]2CCOC(C)(C)C2)cc1 | 11 | -1.51 | – | –
CC(=O)c1cccc(NC(=O)CN2CCN(c3ccc(F)c(F)c3)C2=O)c1 | 24 | -2.76 | – | –
CC(=O)N[C@@H](C)c1ccc(S(=O)(=O)OCC(F)(F)C(F)F)s1 | -9 | 0.95 | – | –
O[C@@H](CN(Cc1ccncc1Cl)C1CC1)c1ccccc1 | 0 | -0.03 | – | –
CCC[C@@]1(C)C(=O)NCCN1C(=O)CC#N | -2 | 0.41 | – | –
O=C(Cn1c(=O)c2cc(C3CC3)nn2c2ncccc21)NCc1ccc(Cl)cc1 | 10 | -1.77 | – | –
O=S(=O)(Cc1cccc(F)c1)N1CCC[C@H](c2nnc(C(F)(F)F)o2)C1 | 10 | -1.16 | – | –
Cc1ccc(NC(=O)Cn2c(C)nc3c(-c4ccncc4)nsc3c2=O)c(Cl)c1 | -10 | 1.61 | – | –
CN(C)CCNc1nc2c(c(=O)[nH]1)Cc1ccccc1OC2 | -4 | 0.72 | – | –
CCn1nccc1C(=O)NC(C)(C)c1nc2c(c(C(N)=O)n1)OCO2 | -6 | 0.75 | – | –
N#Cc1cc2ccccc2nc1OCC(F)F | -10 | 1.95 | – | –
O=C(COC(=O)C1CCCC1)Nc1cc(C2CC2)nn1-c1ccccc1 | -8 | 1.46 | – | –
COc1ccc(-c2cnn3c(C)cc(C)nc23)cc1S(=O)(=O)NC1CCCC1 | -11 | 1.07 | – | –
Cc1ccc(CCCNC(=O)[C@H](C)NS(=O)(=O)c2c(C)noc2C)c(C)c1 | 0 | 0.03 | – | –
COc1cc(NC(=O)C2CCN(c3c(C(=O)N4CCC(C)CC4)cnc4snc(C)c34)CC2)cc(OC)c1 | 20 | -3.5 | – | –
c1csc(-c2n[nH]cc2CNCc2nnc3n2CCOCC3)c1 | 2 | -0.31 | – | –

— ChEMBL document CHEMBL4888484, “Replenishing the malaria drug discovery pipeline: Screening and hit evaluation of the MMV Hit Generation Library 1 (HGL1) against asexual blood stage Plasmodium falciparum ,using a nano luciferase reporter read-out” (2022)
